Experimental data reported in the supplement of paper PMC10369915.
This is one part of the list. No stated cut-off is given here; in the data, active = 3.2 or more and inactive = the rest. The signal is at background level for most entries.

Experiments:
Assay in all cases: enrichment score (SH2-bound / input frequency) (ratio); bacterial display of known human phosphotyrosine sites (pTyr-Var adds point mutants) read by sequencing; higher = stronger binding; tyrosines were phosphorylated by kinases first
Conditions in all cases: peptide library: pTyr-Var
[1] = biological target: SHP2 C-SH2 domain E139D
[2] = biological target: SHP2 C-SH2 domain wild-type
[3] = biological target: SHP2 N-SH2 domain L43F
[4] = biological target: SHP2 N-SH2 domain T42A
[5] = biological target: SHP2 N-SH2 domain T52S
[6] = biological target: SHP2 N-SH2 domain wild-type

Measured: enrichment score
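Further: displayed peptides selected on beads carrying the immobilized SH2 domain, with library peptides lacking any tyrosine serving as negative controls.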

AGREIYESDKC [TTN_Y4424]
inactive: [1] 0.636 | [2] 0.612 | [3] 0.711 | [4] 0.679 | [5] 0.686 | [6] 0.732

SGPRCYTIAAL [TTR_Y125_R124C]
inactive: [1] 0.879 | [2] 0.995 | [3] 1.11 | [4] 0.871 | [5] 1.23 | [6] 1.1

RLSVDYGKKSK [TUBA3E_Y161_S162G]
inactive: [1] 0.853 | [2] 0.916 | [3] 0.764 | [4] 0.724 | [5] 0.681 | [6] 0.851

LLKAGYHGVLR [TTPA_Y100]
inactive: [1] 1.51 | [2] 1.2 | [3] 1.33 | [4] 1.11 | [5] 1.56 | [6] 1.56

TRNREYDDIDD [TTYH2_Y424_D423E]
inactive: [1] 0.215 | [2] 0.244 | [3] 0.261 | [4] 0.178 | [5] 0.23 | [6] 0.362

TRNRDYDDIDD [TTYH2_Y424]
inactive: [1] 0.274 | [2] 0.212 | [3] 0.206 | [4] 0.175 | [5] 0.336 | [6] 0.154

TENAGYFFQVS [TTN_Y31721_R31724Q_YF]
inactive: [1] 0.978 | [2] 0.877 | [3] 0.74 | [4] 0.638 | [5] 0.584 | [6] 1.03

AGREIYESEKC [TTN_Y4424_D4427E]
inactive: [1] 0.575 | [2] 0.643 | [3] 0.552 | [4] 0.563 | [5] 0.647 | [6] 0.611

EEGEEYGGGGG [TUBA1A_Y451]
inactive: [1] 0.58 | [2] 0.371 | [3] 0.416 | [4] 0.475 | [5] 0.505 | [6] 0.476

KFDLMYAKLAF [TUBA1A_Y399_R402L]
active: [2] 3.97 | [3] 11.3 | [4] 12.7 | [5] 11.8 | [6] 5.04
inactive: [1] 2.62

STKELYEKYMI [TTN_Y32175]
inactive: [1] 0.868 | [2] 0.786 | [3] 0.724 | [4] 0.768 | [5] 0.798 | [6] 0.721

SGPRRYTIAAL [TTR_Y125]
inactive: [1] 0.489 | [2] 0.379 | [3] 0.385 | [4] 0.406 | [5] 0.454 | [6] 0.465

SGRRRYTIAAL [TTR_Y125_P122R]
inactive: [1] 0.191 | [2] 0.242 | [3] 0.263 | [4] 0.221 | [5] 0.213 | [6] 0.271

ENAGFYFRISA [TTN_Y31722_V31725I_YF]
inactive: [1] 0.372 | [2] 0.706 | [3] 0.64 | [4] 0.692 | [5] 0.381 | [6] 0.614

AVVEPYNSILT [TUBA1A_Y185]
inactive: [1] 0.978 | [2] 0.753 | [3] 0.789 | [4] 0.599 | [5] 0.961 | [6] 0.735

SAEKAYHEQLS [TUBA1A_Y282]
inactive: [1] 0.622 | [2] 0.697 | [3] 0.792 | [4] 0.611 | [5] 0.673 | [6] 0.62

ENAGFYFRVSA [TTN_Y31722_YF]
inactive: [1] 0.545 | [2] 0.685 | [3] 0.602 | [4] 0.602 | [5] 0.627 | [6] 0.811

ENAGFYFQVSA [TTN_Y31722_R31724Q_YF]
inactive: [1] 0.69 | [2] 0.838 | [3] 1.03 | [4] 0.767 | [5] 0.733 | [6] 0.814

LLKAGYQGVLR [TTPA_Y100_H101Q]
inactive: [1] 0.879 | [2] 1.14 | [3] 1.3 | [4] 0.947 | [5] 0.958 | [6] 0.849
